Hit rate of the full screen: of about 46,000 compounds, about 60 (0.1%) were called active. Inconclusive results (about 3%) are left out. The call rests on the fitted dose curve; in most records, active means well fitted inhibition curve with a large enough effect; inconclusive means small, poorly fitted or top-dose-only effect; inactive means no such curve, though single readings can be large or run the other way. This is one part of the list.
Experiment: Primary qHTS assay for Inhibitors of ovarian cancer metastasis using an organotypic tumor microenvironment (TME) model. Further: nearly all actives have a fitted effect of over 65% in size.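 On activity change, negative = inhibition: plate controls were DMSO wells for no effect and tomatine positive control wells for full effect.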
Settings: SKOV3ip1-GFP adhesion/invasion on 3D omental model, fluorescence; series mostly up to 45.8 µM; activity change, negative = inhibition: at the top concentration
Method in brief: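 A 3D layer of primary human omental fibroblasts, mesothelial cells, fibronectin and collagen I, grown 48 hr, received SKOV3ip1-GFP cells in serum-free medium plus compounds at 0.36-46 umol/L. After 2 hr RT and 16 hr 37 C, fixed adherent GFP cells were counted; normalized to DMSO and tomatine.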

| SMILES | activity change, negative = inhibition | outcome |
| --- | --- | --- |
| COc1ccc(C2NC(=O)N(C)C3=C2C(=O)N(c2cccc(Cl)c2)C3)cc1 (stereo not given) | inactive: -6.71% | – |
| CCc1ccc(Sc2cc(C(=O)NCc3cccc(OC)c3)c3ccccc3n2)cc1 | – | inactive |
| COC(=O)c1ccc(OCC2c3cc(OC)c(OC)cc3CCN2C(=O)Cc2ccc(OC)cc2)cc1 (stereo not given) | inactive: -4.9% | – |
| Cc1nn2c(-c3cccc(NC(=O)c4ccccc4)c3)nnc2c2ccccc12 | inactive: 2.1% | – |
| COc1ccc(CNC(=O)c2ccc(N3CCCC3)c(NC(=O)NCc3ccc(C)cc3)c2)cc1 | inactive: 0.888% | – |
| CCc1ccccc1NC(=O)CN(Cc1ccccc1)S(=O)(=O)c1ccc(Br)cc1 | inactive: 0.13% | – |
| O=C(Nc1ccc(F)cc1)c1oc2ccccc2c1NC(=O)C12CC3CC(CC(C3)C1)C2 | inactive: -17.9% | – |
| Cc1cccc(OC(=O)CSc2nnc(CNC(=O)c3ccccc3)o2)c1C | inactive: -4.26% | – |
| COc1ccc(CCNC(=O)c2ccc3c(c2)N(Cc2c(F)cccc2Cl)C(=O)CS3)cc1OC | inactive: 2.76% | – |
| O=C(Nc1cc(Cl)cc(Cl)c1)c1ccc(F)c(S(=O)(=O)N2CCc3ccccc32)c1 | – | inactive |
| CCOC(=O)c1c(C)oc2ccc(N(C(=O)Oc3ccccc3)S(=O)(=O)c3ccc(CC)cc3)cc12 | inactive: -4.6% | – |
| CC(C)c1ccc(OCC(=O)NC(Cc2c[nH]c3ccccc23)C(=O)O)cc1 (stereo not given) | inactive: -3.73% | – |
| O=C(Cc1ccccc1)N(Cc1cccnc1)c1nc2c(F)cc(F)cc2s1 | inactive: 2.91% | – |
| COc1ccc(-c2cc(C)no2)cc1S(=O)(=O)N1CCOc2ccccc21 | inactive: 9.18% | – |
| Cc1cccc(N2CCN(C(=O)CCc3nnc4n(CC(C)C)c(=O)c5ccccc5n34)CC2)c1C | – | inactive |
| COc1ccc(-c2cn3c(n2)sc2cc(C(=O)Nc4ccc(C)c(C)c4)ccc23)cc1 | inactive: -8.59% | – |
| COc1ccc(C2CC(=O)c3cc(-c4nc(-c5ccc(Cl)cc5)c(C)s4)c(=O)[nH]c3C2)cc1 (stereo not given) | inactive: 6.87% | – |
| Cc1ccc2c(c1)-c1cc(C)nn1C(c1cc(Br)ccc1O)N2 (stereo not given) | inactive: -16.5% | – |
| CCOC(=O)c1c(C)[nH]c(C)c1S(=O)(=O)N1CCC(C(=O)N2CCN(c3ccccc3F)CC2)CC1 | inactive: -4.01% | – |
| COc1cccc(NC(=O)CSC2=Nc3ccccc3C3=NC(CC(=O)NC4CCCCC4)C(=O)N23)c1 (stereo not given) | inactive: -4.97% | – |

| SMILES | activity change, negative = inhibition | outcome |
| --- | --- | --- |
| CCc1nnc(SCc2cc(C)ccc2C)c2cc3sc(C)cc3n12 | inactive: -10.6% | – |
| COc1ccc(NC(=O)C(C)n2nc(-c3ccc(C)c(C)c3)ccc2=O)cc1OC (stereo not given) | inactive: 1.61% | – |
| CC(C)(C)c1ccc(C(=O)NCC(c2cccs2)S(=O)(=O)c2ccccc2)cc1 (stereo not given) | inactive: -13.8% | – |
| Cc1cc(NC(=O)CCS(=O)(=O)c2cc3c4c(c2)CCN4C(=O)CC3)ccc1Br | – | inactive |
| CC(=O)c1ccc(N2CCN(c3ccc(NC(=O)c4ccc(F)cc4)cc3C(=O)O)CC2)cc1 | inactive: 3.32% | – |
| Cc1cc(C)c2c(=O)cc(C(=O)Nc3ccccc3C(F)(F)F)oc2c1 | inactive: -3.25% | – |
| CCc1ccc(CNC(=O)c2ccc(NC(=O)N3CC(C)Sc4ccccc43)cc2)cc1 (stereo not given) | inactive: 2.21% | – |
| COC(=O)c1ccc2c(=O)n(CCCCCC(=O)NCc3ccc(Cl)cc3)c(=O)[nH]c2c1 | inactive: 37.4% | – |
| Cc1ccc2ncc(C(=O)Nc3ccc(F)cc3F)c(=O)n2c1 | inactive: 14% | – |
| O=S(=O)(Nc1nc2n(n1)C(c1ccc(F)cc1)C=C(c1ccccc1)N2)c1ccccc1 (stereo not given) | inactive: 6.93% | – |
| CCNC(=O)[C@H]1O[C@@H](n2cnc3c(N)nc(NCCc4ccc(CCC(=O)O)cc4)nc32)[C@H](O)[C@H]1O | inactive: -13.8% | – |
| O=C(Nc1cc(-c2nc3ccccc3o2)ccc1Cl)c1ccc(N2CCCCC2)c([N+](=O)[O-])c1 | inactive: -12.7% | – |
| Cc1ccc(CSc2cn(CC(=O)N3CCCC3)c3ccccc23)cc1 | – | inactive |
| CN(C(=O)c1cc2nc(-c3ccco3)cc(C(F)(F)F)n2n1)c1ccc(OC(F)(F)Cl)cc1 | inactive: 6.11% | – |
| CCOC(=O)c1c(-c2ccc(Br)cc2)csc1NC(=O)c1ccc(F)cc1 | inactive: -0.336% | – |
| COC(=O)c1ccccc1NC(=O)CSc1nc2ccccc2nc1Cc1ccccc1OC | inactive: -6.45% | – |
| CC(C)OCCCNC(=O)c1ccc2c(c1)NC(=O)c1ccccc1S2 | inactive: 3.29% | – |
| Cc1ccc(-c2nc(SCCOc3ccccc3C)n3[nH]c(=O)cc3n2)cc1 | inactive: 0.842% | – |
| Cc1ccc(NC(=O)Cn2cc(S(=O)(=O)c3ccc(C)cc3)c(=O)c3cc4c(cc32)OCO4)cc1 | inactive: 9.35% | – |
| COc1ccc(C2c3c(n(C)c4ccccc34)C(=O)N2CC(=O)Nc2ccc(C)c(Cl)c2)cc1 (stereo not given) | inactive: 31.3% | – |

| SMILES | activity change, negative = inhibition | outcome |
| --- | --- | --- |
| CC1=C(c2ccc(C)c(C)c2)S(=O)(=O)N=C1N1CCC(C(=O)N2CCC(C(N)=O)CC2)CC1 | inactive: -0.637% | – |
| O=C1COc2cc(S(=O)(=O)NCc3ccco3)c(Cl)cc2N1 | inactive: -23.5% | – |
| O=c1c2oc3ccccc3c2n(Cc2ccc(Cl)cc2)c(=O)n1Cc1ccco1 | inactive: -10.9% | – |
| Cc1ccccc1C(=O)Nc1ccc(OCc2cc(=O)n3cccc(C)c3n2)cc1 | inactive: 3.63% | – |
| COc1ccc(NC(=O)Nc2nnc(C)s2)cc1 | inactive: -1.11% | – |
| CCc1ccccc1N(CC)C(=O)c1c(C)oc2ncnc(N3CCOCC3)c12 | inactive: 0.306% | – |
| CCOC(=O)C1CCN(c2nc3c(S(=O)(=O)c4ccccc4)nnn3c3ccsc23)CC1 | inactive: 12.6% | – |
| CC(Sc1nc(=O)cc(N)n1CCc1ccccc1)C(=O)Nc1ccc(Cl)cc1 (stereo not given) | inactive: 13.1% | – |
| CCN(C(=O)C1CCC(CNS(=O)(=O)c2cccc3nsnc23)CC1)c1ccc(C)c(C)c1 (stereo not given) | inactive: -0.179% | – |
| Cc1cccc(CN2CCC(CNC(=O)c3c(C)oc4ncnc(N5CCCCC5)c34)CC2)c1 | inactive: 8.28% | – |
| CCN(CC)CC#CCOC(=O)C(O)(c1ccccc1)C1CCCCC1 (stereo not given) | inactive: -20.4% | – |
| O=C(CCc1cn(Cc2ccc(F)cc2)c2ccccc12)NCCc1ccc(Cl)cc1 | inactive: -1.79% | – |
| Cc1oc2ccc(O)c(CN(C)Cc3ccccc3)c2c1C(=O)Nc1ccccc1 | – | inactive |
| CCN(CC)CCNC(=O)c1c(C)oc2ncn(C)c(=O)c12 | inactive: 2.56% | – |
| Cc1cccc(C(=O)Nc2sc3c(c2C(=O)N2CCCCC2)CCC(C)C3)c1 (stereo not given) | inactive: -1.63% | – |
| CC(=O)N1CCOc2cc(S(=O)(=O)NC(C)c3ccccc3)c(Cl)cc21 (stereo not given) | inactive: 14.1% | – |
| CCOC(=O)c1c(NC(=O)/C=C/c2ccc(C(C)C)cc2)sc2c1CCC2 | inactive: -5.2% | – |
| Cc1ccc(NC(=O)Nc2nnc(N3CCCC3)s2)cc1 | inactive: 6.84% | – |
| Cc1ncc([N+](=O)[O-])n1CCO | inactive: -1.1% | – |
| COc1cccc(NC(=O)CSc2nc3ccc(NC(=O)c4cccs4)cc3s2)c1 | inactive: 5.1% | – |

Source: PubChem BioAssay AID1963576 (National Center for Advancing Translational Sciences (NCATS), 2024)
